This is an account of results in the supplement of paper PMC3334620.

In all, about 33,000 sequences were measured (“E-score (-0.5 to 0.5)”: median about -0.032, highest 2% from about 0.36 on). This is one part of the list.

This test concerns the target T1, Sko1 (UniProt Q02100).
T1 sequence: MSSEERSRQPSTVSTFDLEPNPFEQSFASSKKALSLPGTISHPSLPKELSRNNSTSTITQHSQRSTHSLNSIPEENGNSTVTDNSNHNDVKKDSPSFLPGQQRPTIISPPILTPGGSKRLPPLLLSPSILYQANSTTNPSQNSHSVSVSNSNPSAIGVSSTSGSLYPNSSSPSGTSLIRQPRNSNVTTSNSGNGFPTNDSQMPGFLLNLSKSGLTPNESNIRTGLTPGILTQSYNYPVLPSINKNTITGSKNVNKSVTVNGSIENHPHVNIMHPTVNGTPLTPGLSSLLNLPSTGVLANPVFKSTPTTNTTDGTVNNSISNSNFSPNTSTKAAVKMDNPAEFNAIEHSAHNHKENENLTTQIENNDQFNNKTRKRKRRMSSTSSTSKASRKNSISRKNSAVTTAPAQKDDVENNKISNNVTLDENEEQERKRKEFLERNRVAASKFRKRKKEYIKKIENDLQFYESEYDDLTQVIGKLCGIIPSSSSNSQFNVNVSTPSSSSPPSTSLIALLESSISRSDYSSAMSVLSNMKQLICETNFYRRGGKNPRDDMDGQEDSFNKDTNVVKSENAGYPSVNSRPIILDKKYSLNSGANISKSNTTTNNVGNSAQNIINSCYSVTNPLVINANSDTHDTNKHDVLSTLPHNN
The test can be described thus: PBM E-score (8-mer binding enrichment) (E-score (-0.5 to 0.5)); higher = stronger / more preferred TF binding; most listed sequences are background and not binding sites. Particulars: protein concentration: 200 nM; construct: GST-full length. How it is done: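 Universal 'all 10-mer' protein binding microarrays (Agilent AMADID 015681) probed with GST-tagged S. cerevisiae TFs (full-length or DBD) made by in vitro transcription/translation (PURExpress), about 100-200 nM. Bound TF was detected with fluorescent anti-GST. Each ungapped 8-mer (which stands for itself and its reverse complement) is scored by the PBM enrichment score (E-score), a modified Wilcoxon-Mann-Whitney statistic from -0.5 to +0.5, computed with the Universal PBM Analysis Suite. Scale: above 0.35 generally sequence-specific binding.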
On to AAACGCCC, for which the “PBM E-score” value was -0.0956.
Take ATGCATCA: the “PBM E-score” value turned out to be 0.331.
Take GCATCTCA: the “PBM E-score” value was 0.0742.
With CAAACAAG, the “PBM E-score” value is -0.161.
Consider ATACAAGG, for which the “PBM E-score” value stood at 0.02.
The result for GGAGACAC reads 0.0215; that for CACTATAC, 0.105; that for AATGTGTA, 0.0847.
The result for AGGGACGG reads -0.292; that for CGCCGCGC, -0.166; that for GAGTGAAC, -0.0541.
Take TATCGCAA: the “PBM E-score” value was 0.00541.
The figure for CAGAAGCC is -0.118; for ACTTAACA it is 0.153; for ACAAAGCA it is 0.0979.
As for AGCTCACG, the “PBM E-score” value was determined as 0.0675.
The figure for CGCTACAC is -0.0096; for ATACCTGC it is -0.102.
With CGAGACAA, the “PBM E-score” value was -0.164.
The result for ATCGTAAT reads 0.401; that for AGCTAATG, 0.114.
Turning to CCATTCAA, the “PBM E-score” value came to 0.0152.
Take ATGTTTTC: the “PBM E-score” value amounted to 0.162.
As to ATCAAATA, the “PBM E-score” value was 0.0825.
The figure for GATGTGCA is 0.0304; for CAAGAACG it is 0.109.
The figure for ATGGTTGC is -0.159.
As for ATCCTAAT, the “PBM E-score” value turned out to be 0.185.
The result for ATCATCTA reads 0.0859.
The figure for ACCCAGCA is -0.216.
The result for CATTGGCG reads -0.129; that for ATAGTGAC, 0.328.
With CACCCAGA, the “PBM E-score” value is -0.0976.
In the case of CCTTGTTC, the “PBM E-score” value was -0.127.
For GCAGCGAA, the “PBM E-score” value is 0.0105.
The figure for AGGAACAG is -0.18.
As for CTACAGAC, the “PBM E-score” value is -0.118.
As for ATTCTAGG, the “PBM E-score” value was 0.0401.
The result for ATCTGAGG reads -0.0702; that for CGACCCAA, 0.0774; that for GAATTGTC, 0.0358.
The result for CTCCCGCC reads -0.0669; that for AGCAGAGG, -0.306; that for ACGTTCTC, 0.308.
On to CGCTTCAC, for which the “PBM E-score” value was -0.0397.
The figure for GGGGAACA is -0.314.
The figure for ATACCCGA is -0.112.
Consider ACTCTTGC, for which the “PBM E-score” value is -0.00172.
On to AGAGTAGG, for which the “PBM E-score” value was -0.0784.
The figure for AGGGTCCA is -0.398; for AGTCAAAT it is 0.0323.
The figure for ATGATAGG is -0.0571.
For GCATACGC, the “PBM E-score” value worked out at 0.218.
The figure for AGCAGTAA is 0.0447; for GTGGTTTA it is -0.0512.
For the sequence CAGAGCGA, the “PBM E-score” value is -0.0716.
Regarding AGGGGCGA, the “PBM E-score” value is -0.388.
On to TTATTCAA, for which the “PBM E-score” value was 0.27.
On to AACCCTCG, for which the “PBM E-score” value stood at 0.0753.
The result for CCTCGCAA reads -0.116; that for ACATCTAA, 0.161; that for GCGCGCCA, 0.00109.
Turning to CTCCGGAG, the “PBM E-score” value was -0.142.
GACTTAGA: the “PBM E-score” value stood at 0.0692.
The result for ACATTGAG reads -0.178; that for CACCCTTC, -0.181.
For the sequence TTACATAA, the “PBM E-score” value is 0.407.
TCCGCGGA: the “PBM E-score” value is -0.0473.
The result for CAACAAAA reads 0.159; that for AGGAAACG, 0.0727.
Take TGAGGCAA: the “PBM E-score” value came to 0.0977.
The figure for CCCGTAAC is -0.105; for ACTCTATG it is -0.00308.
On to ACGGTCAG, for which the “PBM E-score” value was -0.188.
As for ACTGTGAA, the “PBM E-score” value came to 0.0217.
The figure for CAAGGCGA is -0.287; for CACTTGCA it is -0.135; for GGTGAGAA it is -0.0318.
The result for ACTCGATC reads -0.0287.
Take CAGTTACG: the “PBM E-score” value amounted to 0.328.
The figure for TCCAGAAA is 0.179.
The result for ATGCTATC reads 0.0728; that for CTAAGTGA, 0.132.
The figure for ACTGTATA is 0.142.
As for CTAGCGTC, the “PBM E-score” value was -0.0882.
The result for ATGAACGG reads -0.0873.
